From PMC8204860
Substitutions are numbered along the chain they refer to. These are yes or no findings as the source states them, for the method shown. In cells and extracts the contact can be indirect. Some results given as binding are weak or reduced against the parent protein; the word gives no strength. Where a sequence is shown, tags or fusion partners need not be part of it.

Assays:
Experiment in all cases: co-IP; yeast lysate (50 mM Tris pH 7.5, 0.2% NP40, 150 mM NaCl, 1 mM EDTA); Trs85-mNeonGreen captured on mNeonGreen-Trap resin, Trs23-6xHis-3xFLAG detected by anti-FLAG blot
[1] = biological target: T1, Trs85-mNeonGreen R620A (Saccharomyces cerevisiae) (UniProt P46944)
T1 sequence: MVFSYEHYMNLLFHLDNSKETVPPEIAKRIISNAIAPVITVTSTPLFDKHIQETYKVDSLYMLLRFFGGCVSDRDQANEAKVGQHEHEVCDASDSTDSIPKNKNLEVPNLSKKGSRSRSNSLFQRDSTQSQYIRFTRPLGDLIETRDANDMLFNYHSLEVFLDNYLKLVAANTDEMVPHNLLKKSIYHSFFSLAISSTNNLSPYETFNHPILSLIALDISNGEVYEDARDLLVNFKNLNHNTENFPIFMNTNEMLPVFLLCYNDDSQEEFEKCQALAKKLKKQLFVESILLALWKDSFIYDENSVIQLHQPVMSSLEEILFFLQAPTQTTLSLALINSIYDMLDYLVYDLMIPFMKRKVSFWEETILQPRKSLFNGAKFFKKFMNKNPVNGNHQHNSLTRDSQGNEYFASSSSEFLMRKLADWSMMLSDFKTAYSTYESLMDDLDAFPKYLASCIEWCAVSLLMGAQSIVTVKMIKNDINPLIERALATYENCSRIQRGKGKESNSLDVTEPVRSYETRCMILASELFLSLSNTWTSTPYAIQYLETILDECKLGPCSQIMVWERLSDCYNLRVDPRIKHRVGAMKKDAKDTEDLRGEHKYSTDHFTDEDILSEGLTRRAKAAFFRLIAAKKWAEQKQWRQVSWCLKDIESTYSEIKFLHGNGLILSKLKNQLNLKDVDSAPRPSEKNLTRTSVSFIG

[2] = biological target: T2, Trs85-mNeonGreen R618E, R619E, R620E, K621E (Saccharomyces cerevisiae) (UniProt P46944)
T2 sequence: T1 sequence with R618E, R619E, A620E, K621E

[3] = biological target: T3, Trs85-mNeonGreen R620E (Saccharomyces cerevisiae) (UniProt P46944)
T3 sequence: T1 sequence with A620E

binding [1]: binds
binding [2]: no binding
binding [3]: no binding
B1: TRAPP core (endogenous in yeast, with Trs23-6xHis-3xFLAG) (complex, UniProt Q03784 1-219; P38334 1-175; Q03337 1-283; P36149 1-193; Q03630 1-159; Q99394 …)
chain 1: MAIETILVINKSGGLIYQRNFTNDEQKLNSNEYLILASTLHGVFAIASQLTPKALQLTQQTNIENTIPYIPYVGMSSNRSDTRNGGGNNNKHTNNEKLGSFKGDDFFKEPFTNWNKSGLRQLCTDQFTMFIYQTLTGLKFVAISSSVMPQRQPTIATTDKPDRPKSTSNLAIQIADNFLRKVYCLYSDYVMKDPSYSMEMPIRSNLFDEKVKKMVENLQ
chain 2: MPQYFAIIGKKDNPVYEIEFTNAENPQGFPQDLKELNPFILHASLDIVEDLQWQINPTSQLNGNGGNGSNGGGGFLRSRAVNNTDNCYLGKVDHFYGLAITAYISYSGMKFVMIHGNSANSSVVIDDNNMRSFYQEVHELYVKTLMNPFYKITDPIRSPAFDSRVRTLARKHLSK
chain 3: MSQRIIQPSASDQQFPGKSDGYEYTVGPKQAITSEASTTYIPSRIYSESLLFKRQEASLSAMAFLFQEMISQLHRTCKTAGDFETKLSDYGHNIGIRLLELLNFRASVSPSSLPRASAFLSQNESSSKLSNASNSPGMLANSSTATSASANERLQEKQTESLSNYITKMRRRDLKILDILQFIHGTLWSYLFNHVSDDLVKSSERDNEYMIVDNFPTLTQFIPGENVSCEYFVCGIIKGFLFNAGFPCGVTAHRMPQGGHSQRTVYLIQFDRQVLDREGLRFG
chain 4: MVSTTQSRSLKAMGEEIWKNKTEKINTELFTLTYGSIVAQLCQDYERDFNKVNDHLYSMGYNIGCRLIEDFLARTALPRCENLVKTSEVLSKCAFKIFLNITPNITNWSHNKDTFSLILDENPLADFVELPMDAMKSLWYSNILCGVLKGSLEMVQLDCDVWFVSDILRGDSQTEIKVKLNRILKDEIPIGED
chain 5: MGIYSFWIFDRHCNCIFDREWTLASNSASGTINSKQNEEDAKLLYGMIFSLRSITQKLSKGSVKNDIRSISTGKYRVHTYCTASGLWFVLLSDFKQQSYTQVLQYIYSHIYVKYVSNNLLSPYDFAENENEMRGQGTRKITNRNFISVLESFLAPMVNQ
chain 6: MSSTHSNNVGHPQSSPQGPLTEQQRAQQQYQIFENSLPKVSQSVYQMLLNEMVPLAMGIERQISGDVISSDSNVTSENGNINNMIKRLKIEEHHTVDIIRSHNLIHELYKADEEEKEKVLARLRNIGFQIGLKLSELLIFSNNPNLKFKEMDLLLIMKFICRDVWKQIFGKQIDNLKTNHRGTFYLLDYDYRPIQSFSLEEDAKNEELKMIEPFLEIPVGIIRGVLSSLGYSSEEVICLASFIDRPTDRPKTAFPKGVSFHVQVTMPQ
